This is one part of the list.
B1: PhoQ; a variant is named by its letters at X, in order, P23837 (parent)
chain: MKKLLRLFFPLSLRVRFLLATAAVVLVLSLAYGMVALIGYSVSFDKTTFRLLRGESNLFYTLAKWENNKLHVELPENIDKQSPTMTLIYDENGQLLWAQRDVPWLMKMIQPDWLKSNGFHEIEADVNDTSLLLSGDHSIQQQLQEVREDDDDAEMTHSVAVNVYPATSRMPKLTIVVVDTIPVELKSSYMVWSWFIYVLSANLLLVIPLLWVAAWWSLRPIEALAKEVRELEEHNRELLNPATTRELTSLVRNLNRLLKSERERYDKYRTTLTDLTHSLKTPLXXLQXXLRSLRSEKMSVSDAEPVMLEQISRISQQIGYYLHRASMRGGTLLSRELHPVAPLLDNLTSALNKVYQRKGVNISLDISPEISFVGEQNDFVEVMGNVLDNACKYCLEFVEISARQTDEHLYIVVEDDGPGIPLSKREVIFDRGQRVDTLRPGQGVGLAVAREITEQYEGKIVAGESMLGGARMEVIFGRQHSAPKDE

Variants of: B1
Experiment: enrichment ratio after two sorts for PhoP signalling (ratio (wild type AVST 3.29)); higher = more functional
Details: with PhoP (E. coli)

| Variant | enrichment ratio |
| --- | --- |
| QNGA | ≤ 0.25 |
| PLNI | ≤ 0.25 |
| FLAH | ≤ 0.25 |
| RFKM | ≤ 0.25 |
| NYSK | ≤ 0.25 |
| KIGL | ≤ 0.25 |
| LLME | ≤ 0.25 |
| FPGE | ≤ 0.25 |
| TGQD | ≤ 0.25 |
| KFEG | ≤ 0.25 |
| KHHP | ≤ 0.25 |
| NCNF | ≤ 0.25 |
| KCNQ | ≤ 0.25 |
| NRFA | ≤ 0.25 |
| YILN | ≤ 0.25 |
| GRAE | ≤ 0.25 |
| VDQL | ≤ 0.25 |
| MEAI | 8.36 |
| VVCD | ≤ 0.25 |
| KEVN | ≤ 0.25 |
| KYGT | ≤ 0.25 |
| IYPL | ≤ 0.25 |
| IQKM | ≤ 0.25 |
| RFFD | ≤ 0.25 |
| LQQM | ≤ 0.25 |
| DTHG | ≤ 0.25 |

| Variant | enrichment ratio |
| --- | --- |
| LMSW | ≤ 0.25 |
| EDDY | ≤ 0.25 |
| SDDN | ≤ 0.25 |
| LRRQ | ≤ 0.25 |
| LIIW | ≤ 0.25 |
| LEGG | ≤ 0.25 |
| HYKV | ≤ 0.25 |
| AQAN | 18.7 |
| RASR | ≤ 0.25 |
| EVER | ≤ 0.25 |
| HWER | ≤ 0.25 |
| IMGH | ≤ 0.25 |
| YQDV | ≤ 0.25 |
| SETM | 18.3 |
| ESDT | ≤ 0.25 |
| WSQR | ≤ 0.25 |
| RCFF | ≤ 0.25 |
| RPSP | ≤ 0.25 |
| FSCD | ≤ 0.25 |
| LHKA | ≤ 0.25 |
| LPLI | ≤ 0.25 |
| YMPA | ≤ 0.25 |
| WESQ | ≤ 0.25 |
| RWRI | ≤ 0.25 |
| LNCE | ≤ 0.25 |
| EAIR | 3.23 |

| Variant | enrichment ratio |
| --- | --- |
| RIPY | ≤ 0.25 |
| YKIN | ≤ 0.25 |
| FRLF | ≤ 0.25 |
| KESD | ≤ 0.25 |
| HTVW | ≤ 0.25 |
| MGVI | ≤ 0.25 |
| REKS | ≤ 0.25 |
| FMTI | ≤ 0.25 |
| AIEQ | ≤ 0.25 |
| QEIQ | ≤ 0.25 |
| FTFW | ≤ 0.25 |
| WVII | ≤ 0.25 |
| STWQ | 0.54 |
| FLSN | ≤ 0.25 |
| ECMN | ≤ 0.25 |
| ASAC | 6.45 |
| SNVD | ≤ 0.25 |
| EIPM | ≤ 0.25 |
| QFLC | ≤ 0.25 |
| WVGF | ≤ 0.25 |
| HWDG | ≤ 0.25 |
| WEFD | ≤ 0.25 |
| MYYS | ≤ 0.25 |
| MAWE | ≤ 0.25 |
| LVSA | ≤ 0.25 |

Source: a collection of fitness landscapes (doi:10.1126/science.1257360)
